# Assay results published in PubChem BioAssay AID504374 (National Center for Advancing Translational Sciences (NCATS), 2011).
# The whole screen tested about 1,500 compounds, of which about 100 (6.7%) were called active. Inconclusive results (about 7%) are left out. The call rests on the fitted dose curve; in most records, active means well fitted inhibition curve with a large enough effect; inconclusive means small, poorly fitted or top-dose-only effect, or effect the other way; inactive means flat fitted curve, though single readings scatter. Some of the results follow.
# Target: Runt-related transcription factor 1 (Homo sapiens) + Core-binding factor subunit beta (Homo sapiens) (UniProt Q01196+Q13951)
# Assay: qHTS Assay for Compounds Blocking the Interaction Between CBF-beta and RUNX1 for the Treatment of Acute Myeloid Leukemia: Hit Validation; further: nearly all actives have a fitted effect of over 60% in size
# Details: AlphaScreen CBFb-His/RUNX1-biotin binding; series mostly up to 59.8 µM; activity, negative = inhibition: at the top concentration
# Text: NIH Chemical Genomics Center [NCGC]
# NIH Molecular Libraries Probe Production centers Network [MLPCN]
# Assay Submitter (PI): Paul Liu
# Core Binding Factor (CBF) abnormalities are associated with 20-25% of all acute myeloid leukemias (AML), of which 5-10% are further sub classified as acute myelomonocytic leukemia with eosinophilia, also known as M4Eo in the FAB classification scheme. This subtype of leukemia is usually associated with chromosome 16 inversion (p13:q22). Chromosome 16 inversion results in formation of the fusion oncogene CBFB-MYH11, which encodes the fusion protein CBF-beta-SMMHC.
# It has been hypothesized that the interference of CBF-beta and RUNX1 binding could have therapeutic implications for patients with CBF mediated leukemias. We developed a CBF-beta and RUNX1 binding assay in AlphaScreenTM format and optimized it for high throughput screening to search for inhibitors. The goal of this project is to screen MLPCN's compound collection (MLSMR) for identifying the inhibitors of the interaction between CBF-beta and RUNX1 proteins as research probes. If these probes work well in the animal models, the ultimate goal of this project is to development a new drug treatment for this disease.
# This assay can not be used to assess how apparent inhibitors interfere with protein binding, and whether inhibitors specifically bind to either protein. Disruption of this protein-protein interaction, through any mechanism, is the intended target activity.
# The present data set was run to confirm the activity of hits from the primary screen.
# NCGC Assay Protocol Summary:
# Step, Parameter, Description
# (1) Reagent, 3 uL CBFb-His/RUNX1-biotin mix incubated together for 20 minutes at room temperature (30 nM each)
# (2) Compound or control, 23 nL compound stock solution
# (3) Incubation, 15 minutes at Room temperature
# (4) Reagent, 1 uL 50 ng each of beads (Nickel beads and streptavidin beads)
# (5) Incubation, 90 minutes at Room temperature
# (6) Detection, Excitation=365 nm Emission=440 nm, Envision reader in AlphaScreenTM mode
# Keywords: MLSMR, MLPCN, NIH Roadmap, qHTS, NCGC, Core binding factor, CBF, CBF-beta, Acute myeloid leukemia
# On the % scale 0 is the no-effect control and ±100 the full control effect; potency means the concentration at half of the fitted maximal effect.
# UniProt Q01196, sequence (Q01196 whole entry, looked up): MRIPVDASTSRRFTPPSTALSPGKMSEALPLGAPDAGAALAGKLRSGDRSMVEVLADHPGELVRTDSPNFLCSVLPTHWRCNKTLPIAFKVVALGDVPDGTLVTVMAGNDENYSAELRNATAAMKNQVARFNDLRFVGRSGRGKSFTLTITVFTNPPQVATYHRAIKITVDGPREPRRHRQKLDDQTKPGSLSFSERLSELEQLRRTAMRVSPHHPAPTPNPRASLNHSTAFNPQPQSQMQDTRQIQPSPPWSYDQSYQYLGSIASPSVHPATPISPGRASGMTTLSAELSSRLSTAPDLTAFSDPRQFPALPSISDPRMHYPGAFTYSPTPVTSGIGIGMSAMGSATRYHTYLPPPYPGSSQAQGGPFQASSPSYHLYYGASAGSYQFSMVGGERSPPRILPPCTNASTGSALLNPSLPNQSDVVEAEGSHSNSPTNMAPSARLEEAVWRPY
# UniProt Q01196, sequence (Q13951 whole entry, looked up): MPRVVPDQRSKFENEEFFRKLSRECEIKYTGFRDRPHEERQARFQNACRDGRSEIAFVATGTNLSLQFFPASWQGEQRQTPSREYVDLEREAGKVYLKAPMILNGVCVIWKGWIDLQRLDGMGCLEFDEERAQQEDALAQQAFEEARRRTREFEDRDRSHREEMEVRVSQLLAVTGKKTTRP
Structure (SMILES),"activity, negative = inhibition",Potency
COc1ccc2[nH]c(=O)c(CN(C(=O)C3CCCO3)c3ccc(C)c(C)c3)cc2c1 (centres undefined),inactive: -5.53%,–
COc1cc(C2C(C#N)=C(N)OC3=C2C(=O)CC(C)(C)C3)ccc1OCCN1CCOCC1 (centres undefined),inactive: -3.79%,–
Cc1ccc(-c2cc(-c3c(C)nn(C)c(=O)c3N)[nH]n2)cc1,inactive: -3.07%,–
O=S(=O)(c1cccc(F)c1)N1CCc2sccc2C1c1ccc(OC(F)(F)F)cc1 (centres undefined),inactive: 3.84%,–
O=C(Oc1cc(=O)oc2c1c(=O)n1c3c(cccc23)CC1)c1ccccc1,inactive: -1.83%,–
COc1ccc(/C=N/NC(=O)c2cnccn2)c(OC)c1OC,inactive: -4.33%,–
CC1(C)C([N+](=O)[O-])C(c2ccc(F)cc2)NC(c2ccc(F)cc2)C1[N+](=O)[O-] (centres undefined),inactive: -4.27%,–
Cc1cc(C)c(NC(N)=S)c(C)c1,inactive: -19.2%,–
Cc1[nH]ncc1-c1ccccc1Cl,inactive: 2.43%,–
O=C(Cc1ccccc1)Nc1c(Cl)ccc2nsnc12,inactive: -0.353%,–
O=S(=O)(Nc1nc(SCc2ccc(Cl)cc2)n[nH]1)c1ccc(F)cc1,inactive: -18.6%,–
COc1ccccc1/C=C/C=N/NC(=O)CCn1cnc2ccccc21,inactive: -4.8%,–
S=c1[nH]nc(-c2cccs2)n1C1CCCCC1,inactive: 6.08%,–
CN(C)CCCNc1cc(C(C)(C)C)nc2c(-c3ccc(Cl)cc3)cnn12,inactive: -2.95%,–
CC(=O)Oc1cc2cccc(OC(C)=O)c(=O)c2c(OC(C)=O)c1OC(C)=O,–,active: 1.12 µM
NC(=O)N/N=C/CCc1ccccc1,inactive: 4.89%,–
CCOC(=O)N1CCc2c(sc(NC(=O)CN(CC)CC)c2C#N)C1,inactive: 1.73%,–
CN(C(=O)Nc1ccccc1)n1cnc2ccccc2c1=O,inactive: 1.42%,–
COc1ccc(/C(C)=N/NC(=O)CNC(=O)Cc2ccccc2)c(OC)c1,inactive: -10.6%,–
COc1c(/C=N/NC(=O)c2ccncc2)c(CCN(C)C(C)=O)cc2c1OCO2,inactive: -1.26%,–
CN1C(=O)N(c2nnc(C(C)(C)C)s2)C(=O)C1c1ccccc1 (centres undefined),inactive: 2.28%,–
CN1C(=CC=C2C=C(I)C(=O)C(I)=C2)C(C)(C)c2ccccc21,inactive: 0.353%,–
Cc1ccc(S(=O)(=O)NNC(=S)NC(C)(C)C)cc1,inactive: 1.87%,–

Structure (SMILES),"activity, negative = inhibition",Potency
Brc1ccc2oc(-c3ccn[nH]3)cc2c1,inactive: 4.3%,–
Cc1cc(=O)[nH]c2c1c(C)nn2C(C)(C)C,inactive: -0.932%,–
Nc1cc(N)nc(CS)n1,inactive: 0.962%,–
CC(=O)/C(N=Nc1ccc(-n2ccc(C(F)(F)F)n2)cc1)=C(\C)O,inactive: -3.71%,–
CCCCC1C2C(=O)N(c3ccccc3)C(=O)C2ON1c1ccccc1 (centres undefined),inactive: -4.55%,–
Cc1c(-c2ccc(Cl)cc2)[n+](=O)c2c(n1[O-])CCCC2,inactive: 3.49%,–
O=C(O)c1nccnc1C(=O)Nc1ccc(Oc2c(Cl)cccc2Cl)nc1,inactive: 0.138%,–
Nc1nccc(/C=C/c2c(Cl)cccc2Cl)n1,inactive: -9.01%,–
COc1ccc(CCNC(=O)C(=O)NCC2CCNCC2)cc1OC,inactive: -3.78%,–
N#Cc1cnn(-c2ccccc2)c1NC(=O)CN1CCOCC1,inactive: 0.441%,–
C=CCN=C1S/C(=C/c2ccc([N+](=O)[O-])cc2)C(=O)N1CC=C,inactive: -3.34%,–
Cc1onc(-c2ccccc2)c1C(=O)c1ccccc1,inactive: -4.83%,–
O=S(=O)(c1ccc2nc(-c3ccco3)c(-c3ccco3)nc2c1)N1CCOCC1,–,active: 5.46 µM
COc1ccc(/C=N/NC(=O)c2ccco2)cc1OCc1ccccc1,inactive: -0.527%,–
CC1CCN(C2CCN(C(=O)c3ccccc3F)CC2)CC1,inactive: 2.74%,–
COc1ccccc1NC(=O)OCC#CCOC(=O)Nc1ccccc1OC,inactive: 9.79%,–
CCOC(=O)CNC(=O)c1cccnc1Oc1ccc(Cl)cc1,inactive: -8.52%,–
O=C(Nc1ccccc1F)Oc1cccc(OC(=O)Nc2ccccc2F)c1,inactive: -1.24%,–
O=C(O)c1nccnc1C(=O)Nc1ccc(S(=O)(=O)N2CCOCC2)cc1,inactive: -6.89%,–
O=C(Nc1ccccc1)Nc1ccc2ccccc2c1,inactive: 8.42%,–
Cc1ccccc1OCC(=O)Nc1nnc(C2CCCCC2)s1,inactive: 0.0088%,–
Cc1nnn(C23C[C@@H]4C[C@@H](CC(C(=O)N5CCN(c6ccccc6)CC5)(C4)C2)C3)n1,inactive: -5.35%,–
Cc1onc(-c2ccccc2)c1C(=O)NC(=S)NNC(=O)c1ccco1,inactive: -9.63%,–

Structure (SMILES),"activity, negative = inhibition",Potency
Fc1ccc(-c2cc(-c3cccs3)cc(-c3ccccc3)n2)cc1,inactive: -3.64%,–
CC1=Nc2ccccc2N=C(NC(=O)CSC(=S)N2CCCCC2)C1c1ccccc1 (centres undefined),inactive: -18.7%,–
N#Cc1cnn(-c2ccccc2)c1NC(=O)CN1CCN(c2ccccc2)CC1,inactive: -5.43%,–
O=C(O)/C(=C\c1cn(-c2ccccc2)nc1-c1cccnc1)NC(=O)c1ccccc1,inactive: -5.63%,–
CCOC(=O)c1nnn2c1nc(N1CCN(C)CC1)c1ccccc12,inactive: -4.29%,–
O=C(c1cc(Cl)cc(Cl)c1)N1CCN(c2cc(C(F)(F)F)nc3ccccc23)CC1,inactive: 3.39%,–
O=C(COC(=O)c1cc(S(=O)(=O)N2CCOCC2)ccc1O)Nc1cc(S(=O)(=O)N2CCCC2)ccc1Cl,inactive: -3.65%,–
CCOC(=O)N1CCc2c(sc3nc[nH]c(=O)c23)C1,inactive: -4.17%,–
C=CCNC(=S)Nc1c(C(=O)OC)[nH]c2cc(OC)ccc12,inactive: -6.58%,–
Cc1onc2c(=O)n(-c3ccccc3)nc(-c3ccccc3)c12,inactive: -2.11%,–
c1ccc(-c2ccc(C3=Nn4c(nnc4-c4cccs4)SC3)cc2)cc1,inactive: -9.62%,–
COc1ccc(CCNS(=O)(=O)c2cnc(Cl)c(Br)c2)cc1OC,inactive: -11.1%,–
COc1ccc(C2=NOC(CNC(=O)c3ccccc3Br)C2)c(OC)c1 (centres undefined),inactive: -1.57%,–
CC1=C(O)C(=O)OC1c1c(Cl)cccc1Cl (centres undefined),inactive: 9.32%,–
Cc1ccc(F)cc1NC(=O)N1c2ccccc2NC(=O)CC1C (centres undefined),inactive: 5.13%,–
O=C(Nc1ccccc1)Nc1ccc(C(F)(F)F)cn1,inactive: 7.38%,–
c1ccc(-c2ccc(-c3ccccn3)nn2)nc1,–,active: 2.82 µM
Cc1cc(C(=O)NNS(=O)(=O)c2ccc(C(C)(C)C)cc2)nn1C(C)(C)C,inactive: -4.44%,–
CCc1cc2c3c(c1)C(C)CC(C)(C)N3C(=O)/C2=C1\SC(=O)NC1=O (centres undefined),inactive: -2.37%,–
C/C(=N\NC(=O)CCc1c(C)n[nH]c1C)c1ccc([N+](=O)[O-])cc1,inactive: -9.56%,–
COC(=O)Cc1[nH]c(=S)[nH]c1C(=O)OC,inactive: -0.692%,–
COc1cc(OC)c(OC)cc1/C=C1\Oc2cc(OS(C)(=O)=O)ccc2C1=O,inactive: -9.97%,–
CN(C)S(=O)(=O)Nc1cccc(Br)c1,inactive: 0.119%,–

Structure (SMILES),"activity, negative = inhibition",Potency
O=C(CCl)N(CCCNC(=O)C(F)(F)F)c1ccc([N+](=O)[O-])cc1,inactive: -3.69%,–
O=C(CSc1nnc2n1CCCN2)c1ccccc1,inactive: -13%,–
Cc1cccc(C)c1NC(=S)N1CCOCC1,inactive: 0.441%,–
CCOC(=O)c1nnn2c1nc(N1CCOCC1)c1ccccc12,inactive: -1.49%,–
COc1cccc(C2=NN(C(=O)CCCC(=O)O)C(c3cccs3)C2)c1 (centres undefined),inactive: -2.11%,–
CN(C)C=Nc1ccccc1C1C=NNC1=O (centres undefined),inactive: -6.95%,–
Cc1cc(NC(=O)c2ccc3c(c2)C(=O)N(CC(C)C)C3=O)no1,inactive: -2.51%,–
O=C(NC(=S)NNC(=O)c1cnccn1)c1ccc(F)cc1,–,active: 2 µM
Cc1cc(NC(=O)Nc2cc(Cl)ccc2C)no1,inactive: 7.12%,–
COC(=O)c1cnc(N2CCOCC2)nc1C(F)(F)F,inactive: 10.6%,–
CN(C)S(=O)(=O)c1ccc(Cl)c(NC(=O)CN2CCN(Cc3ccc4c(c3)OCO4)CC2)c1,inactive: -5.65%,–
C/C(=N\O)c1c(O)cc(-c2ccccc2)n(-c2ccccc2)c1=O,inactive: -1.85%,–
CCOC(=O)c1nnsc1-c1ccc(-c2snnc2C(=O)OCC)cc1,inactive: -0.231%,–
C/C(=N\O)C1CC(CC(=O)O)C1(C)C (centres undefined),inactive: -1.84%,–
COc1ccc(NS(=O)(=O)c2ccc3c(c2)CCO3)cc1,inactive: -11.6%,–
O=C(CSC(=S)N1CCOCC1)Nc1ncc2c(n1)CCCC2=O,inactive: -6.22%,–
Cc1ccc2nc(-c3ccc(N)cc3)sc2c1,inactive: 0.903%,–
CCCSc1nnc(NC(=O)Nc2ccc(C)cc2)s1,inactive: 3.1%,–
c1ccc2sc(SCSc3nc4ccccc4s3)nc2c1,inactive: -3.42%,–
C/C(Cc1ccccc1)=N\NC(=O)CNC(=O)Cc1ccc(Cl)cc1,inactive: -1.04%,–
O=C(Nc1ccccc1)NC1CCCCNC1=O (centres undefined),inactive: 1.23%,–
CC(C)C(=O)Nc1c(-c2ccccc2)c(=O)c2ccccc2n1C,inactive: -0.529%,–
CCOC(=O)CCCC(=O)N1CCOCCOCCOCC1,inactive: 16.6%,–

Structure (SMILES),"activity, negative = inhibition",Potency
CCN(CCS(=O)(=O)c1ccc(Cl)cc1)C(=O)Nc1ccccc1,inactive: -4.65%,–
O=C(NC(=S)Nc1ccccc1N1CCCC1)c1ccco1,inactive: -2.74%,–
CN(C)c1ccc(/C=N/N2CCN(c3ccccn3)CC2)cc1,inactive: -9.06%,–
NC(=S)N/N=C/c1ncc(C(F)(F)F)cc1Cl,–,active: 25.1 µM
Cc1cc(O)c(C=O)c2c1C(=O)Oc1c(COC(=O)/C=C/C(=O)O)c(O)c(C(=O)O)c(C)c1O2,–,active: 11.2 µM
Brc1ccc(C2=Nn3c(Cn4nnc5ccccc54)nnc3SC2)cc1,inactive: -1.04%,–
COc1ccccc1C1=NOC(COC(=O)c2ccc([N+](=O)[O-])cc2)C1 (centres undefined),inactive: -4.56%,–
Cc1cc(C)c2c(N)c(-c3nnc(SCc4ccc(Cl)cc4)n3C)sc2n1,inactive: 2.85%,–
CC1SCC(=NOCc2ccccc2)CS1 (centres undefined),inactive: -8.26%,–
CN(C)/C=C1\N=C(c2cccnc2Oc2ccc(Cl)cc2)OC1=O,inactive: 6.79%,–
CC(C)(C)SCCNC(=O)/C=C/c1ccccc1,inactive: -3.56%,–
O=S(=O)(Nc1ccccc1)c1ccc2c(c1)CCO2,inactive: -0.675%,–
Cc1[nH]c2ccccc2c1-c1csc(NC(=O)CSCC(=O)O)n1,inactive: -7.85%,–
COC(=O)c1ccc(S(=O)(=O)N(C2CCCCC2)C2CCCCC2)n1C,inactive: -5.96%,–
C[C@H](NC(=O)OC(C)(C)C)C(=O)N/N=C/c1ccc2nccnc2c1,inactive: -2.06%,–
Oc1ccccc1-c1nc(NCc2cccnc2)c2ccccc2n1,inactive: 12.7%,–
CCOC(=O)c1sc(NC(=O)CSC(=S)N2CCOCC2)nc1C,inactive: -8.75%,–
CCNC(=S)Nc1ccc(NC(=O)c2ccccc2O)cc1,inactive: -7.2%,–
Cc1nn2c(NCCCn3ccnc3)cc(C(C)C)nc2c1-c1ccccc1,inactive: -18.6%,–
CN(C)C(=O)Nc1ccccc1,inactive: -3.42%,–
Cc1cc(-n2cnc(-c3cn(C)nc3C)n2)no1,inactive: 4.98%,–
O=C(Nc1ccc2ccccc2c1)c1ccc(Cl)cc1Cl,inactive: 2.02%,–
